Data: PubChem BioAssay AID1466 (National Center for Advancing Translational Sciences (NCATS), 2008)
The whole screen tested about 200,000 compounds, of which about 10 (0.005%) were called active. The shares of active, inactive and inconclusive entries below differ from those in the screen. Calls follow the shape of the dose curve; as a rule, active = well fitted inhibition curve with a large enough effect; inconclusive = small, poorly fitted or top-dose-only effect, or effect the other way, or another doubt; inactive = no such curve, though single readings can be large or run the other way. A potency beside an inconclusive call is a rough fit, not a confirmed value.

Target: Lysosomal alpha-glucosidase (Homo sapiens) (UniProt P10253)
Assay: qHTS Assay for Inhibitors of Human alpha-Glucosidase as a Potential Chaperone Treatment of Pompe Disease;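 as to activity change, negative = inhibition: plate controls were uninhibited enzyme wells for no effect and no-enzyme background for full effect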
Conditions: purified human GAA, 4-MU-alpha-glucoside fluorescence; activity change, negative = inhibition: at 76.9 µM (top of the series) unless noted
Summary of the method: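 Fluorescence at Ex 365/Em 440 nm from 4-methylumbelliferone reported enzyme activity after 20 min at room temperature. Reactions used 4 nM enzyme and 400 uM substrate at pH 5.0; curves fitted with the Hill equation.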
Potency is read from the fitted curve at half-maximal effect; tags tell the direction and shape of the fitted curve.

Activity change, negative = inhibition, inactive:
Nc1ccc(C(=O)OCC(=O)NC2CCS(=O)(=O)C2)cc1[N+](=O)[O-] (configuration not stated) -4.02%
Cc1ccc(C)c(NC(=S)c2ccccn2)c1 -10.2%
O=C(O)C1Sc2[nH]c(=O)sc2C2c3cc(Cl)ccc3OC(=O)C12 (configuration not stated) 5.76%

Activity change, negative = inhibition, inconclusive:
Cc1ccc(C)c(CSCC(=O)NCc2cccs2)c1 -16.4% [inhibitor]
COc1ccccc1N1CC(C(=O)Nc2ccc(S(=O)(=O)N3CCOCC3)cc2)CC1=O (configuration not stated) -18.6% [inhibitor]
Cc1ccc2cc(S(=O)(=O)NCCCN3CCOCC3)ccc2c1 16.4% [activator]
CCN1CCN(C(=O)CCCn2c(C)c3cnn(-c4ccccc4)c(=O)c3c2C)CC1 -16.9% [inhibitor]
COc1ccc(CCNc2oc(-c3cccc4ccccc34)nc2P(=O)(OC)OC)cc1OC 146% [activator]
Fc1ccc(CSc2nsc(SCc3ccc(F)cc3)n2)cc1 -15.9% [inhibitor]
Cc1oc(-c2cc(F)cc(F)c2)nc1CN1CCSCC1 14.1% [activator]
O=C(CN1CCC(Cc2ccccc2)CC1)NC(=O)NCc1ccco1 -17.2% [inhibitor]
CC(C)Cn1cnc2c(c(-c3ccccc3)c(-c3ccccc3)n2Cc2ccco2)c1=N -17.5% [inhibitor]
CC(C)[C@H](NC(=O)c1ccco1)C(=O)OCC(=O)c1ccc2c(c1)NC(=O)CO2 16% [activator]
O=C(O)c1ccc(N/N=C/c2ccc(-c3ccccc3)cc2)cc1 -16.2% [inhibitor]
O=C(Nc1ccc(Br)cc1)c1cccnc1N1CCOCC1 15.2% [activator]
O=S(=O)(NCC1CCCO1)c1ccc(Cl)c(C(F)(F)F)c1 (configuration not stated) -16.8% [inhibitor]
c1csc(-c2noc(CN3CCc4sccc4C3)n2)c1 7.73% [activator]
Cc1cc(Cl)c(S(=O)(=O)N/N=C/c2ccc3c(c2)OCO3)c(Cl)c1 -15.4% [inhibitor]
CC(O)CNc1cc(N)c([N+](=O)[O-])cc1[N+](=O)[O-] (configuration not stated) -15.3% [inhibitor]
COCCn1c(SCC(=O)Nc2cccc(C)n2)nnc1-c1ccco1 0.272% [activator]

Potency, inconclusive:
CCOC(=O)C1CCN(C(=O)C(C)Oc2ccc(Br)cc2)CC1 (configuration not stated) 1.58 µM [inhibitor, full curve, poor fit]
CCCc1nc2ccccc2n1Cc1ccccc1OC 1.41 µM [inhibitor, full curve, poor fit]
CC1CCCN(C(=O)C2CCN(CC3CC=CCC3)CC2)C1 (configuration not stated) 11.2 µM [inhibitor, single point]
CC(C)=NNc1cc([N+](=O)[O-])cc2c1C(=O)N(C)S2=O (configuration not stated) 50.1 µM [inhibitor, single point]
CCNc1nc(N)nc(Oc2ccc(OCc3ccccc3)nn2)n1 56.2 µM [inhibitor, single point]
Cc1cccc2sc(N(CCCN(C)C)C(=O)CN3C(=O)c4ccccc4C3=O)nc12 25.1 µM [inhibitor, partial curve]
CCOC(=O)n1c(=O)n(Cc2ccc(Cl)c(Cl)c2)c2ccccc21 44.7 µM [inhibitor, single point]
CCCn1c(SCc2ccccn2)nc2c1c(=O)n(C)c(=O)n2C 2.24 µM [inhibitor, partial curve]
CCOc1ccc(C(=O)Nc2c3c(nn2-c2cccc(Cl)c2)CS(=O)C3)cc1 (configuration not stated) 39.8 µM [inhibitor, partial curve]
COc1ccc(CCNC(=O)c2cc(C(=O)c3cc(C)ccc3O)cn(CCc3ccc(OC)cc3)c2=O)cc1 39.8 µM [inhibitor, partial curve]
Cc1cc(NS(=O)(=O)c2ccc(NC(=O)COc3ccc(Cl)cc3)cc2)no1 39.8 µM [inhibitor, single point]
O=C(NC12CC3CC(CC(C3)C1)C2)N(Cc1ccccc1)Cc1ccncc1 56.2 µM [inhibitor, single point]
Cc1nn(C)cc1CNCc1c(C(=O)N2CCCCC2)nc2c(C)cccn12 4.47 µM [inhibitor, single point]
COc1ccc(NC(=O)COC(=O)C2CCN(S(=O)(=O)c3cccs3)CC2)cc1 20 µM [inhibitor, partial curve]
COC(=O)c1ccc(C(=O)OC)c(NC(=S)N2CCN(C)CC2)c1 15.8 µM [activator, partial curve, poor fit]
O=[N+]([O-])c1cccnc1N1CCC(c2cc(-c3cccc(C(F)(F)F)c3)n[nH]2)CC1 8.91 µM [inhibitor, partial curve]
CCOC(=O)C1(O)CSc2nc3sc(C(=O)O)c(C)c3c(=O)n21 (configuration not stated) 50.1 µM [inhibitor, single point]
COc1ccccc1OCCn1c(=O)n(C)c2ccccc21 0.224 µM [activator, full curve, poor fit]
Cc1cc(SCC(=O)Nc2cccc(S(=O)(=O)N3CCOCC3)c2)nc2ccccc12 1 µM [inhibitor, full curve]
COCCCNC(=O)c1ccc2nc3ccccc3c(=O)n2c1 22.4 µM [activator, partial curve]
O=C(Cc1ccc2c(c1)OCCO2)N1CCN(S(=O)(=O)c2cccc(Cl)c2Cl)CC1 25.1 µM [inhibitor, single point]
COc1ccc(/C=N/NC(=O)c2ccco2)cc1Cn1nc(C)c([N+](=O)[O-])c1C 56.2 µM [inhibitor, single point]
Cc1ccc(SCc2[nH]nc3c2C2(C(=O)Nc4ccc([N+](=O)[O-])cc42)C(C#N)=C(N)O3)cc1 (configuration not stated) 50.1 µM [inhibitor, single point]
Oc1ccc(CN2CCCCC2)c2cccnc12 50.1 µM [inhibitor, single point]
COc1ccc(OC)c(S(=O)(=O)N(C)CC(=O)N2CCN(c3cccc(Cl)c3)CC2)c1 0.178 µM [inhibitor, full curve, poor fit]
C/C(=N\NC(=O)CSCc1ccccc1Br)c1cccc([N+](=O)[O-])c1 0.398 µM [inhibitor, full curve, poor fit]
O=C(CN1C(=O)NC2(CCCc3ccccc32)C1=O)Nc1cccc(S(=O)(=O)N2CCCCC2)c1 (configuration not stated) 35.5 µM [inhibitor, partial curve]
Cc1c2cnn(-c3ccccc3)c(=O)c2c(C)n1CCCC(=O)N1CCN(c2ncccn2)CC1 3.16 µM [inhibitor, partial curve, poor fit]
COc1ccc(N(CC(=O)N2CCc3ccccc32)S(=O)(=O)c2c(C)n[nH]c2C)cc1 56.2 µM [inhibitor, single point]
CCOc1ccc(C(=O)Nc2ccc3c(c2)OCCO3)cc1OC 31.6 µM [inhibitor, partial curve]
CCNC(=O)NC(=O)COC(=O)c1ccccc1SCC(=O)NC(=O)NCC 11.2 µM [activator, partial curve]
O=C(CSc1nccn1-c1ccccc1)NCc1ccc(F)cc1 7.94 µM [inhibitor, partial curve, poor fit]
CC1(C)CC2CC(C)(CN2S(=O)(=O)c2ccc(C(=O)Nc3cccc(S(=O)(=O)N4CCOCC4)c3)cc2)C1 (configuration not stated) 3.16 µM [inhibitor, single point]
O=C(NCCSC1CCCCC1)c1ccccc1 22.4 µM [inhibitor, partial curve]
O=C(COC(=O)C1CCN(S(=O)(=O)c2ccc3c(c2)OCCO3)CC1)Nc1cccc2ccccc12 17.8 µM [inhibitor, partial curve, poor fit]
CN(C)/C=C/C(=O)c1cccc(Oc2ncccn2)c1 50.1 µM [inhibitor, single point]
CCOC(=O)c1ccc2c(c1)nc(C1CCN(S(=O)(=O)c3cccs3)CC1)n2CC 50.1 µM [inhibitor, single point]
COc1ccccc1N1CCN(S(=O)(=O)c2cc(C(F)(F)F)cc(C(F)(F)F)c2)CC1 5.62 µM [inhibitor, single point]
COc1cccc(OCc2nnc(SCC(=O)OCc3ccccc3)o2)c1 56.2 µM [inhibitor, single point]
O=C(Nc1c2c(nn1-c1ccc(F)cc1)CSC2)c1ccc(S(=O)(=O)N2CCOCC2)cc1 0.891 µM [inhibitor, partial curve]
Cc1ccc(N2CCN(S(=O)(=O)c3ccc(F)cc3)CC2)c(C)c1 25.1 µM [inhibitor, single point]
COC(=O)CNC(=O)COC(=O)c1cc(Cl)cc(Cl)c1N 39.8 µM [activator, partial curve]
